A compilation of properties of binary mixtures (doi:10.1016/j.jct.2022.106952)
Some of these densities may be calculated back from excess volumes.

Assay: xn = mol fraction of the nth substance listed
Settings: 101.3 kPa

CCCC[n+]1ccn(C)c1.F[P-](F)(F)(F)(F)F + CCCCCCCCN1CCCC1=O
x1 = 1
Settings	mass density [kg/m3]
308.15 K	1360.4
313.15 K	1356.2
318.15 K	1352.1
323.15 K	1348

CCCCCCCCN1CCCC1=O + CCCC[n+]1ccn(C)c1.F[P-](F)(F)(F)(F)F
mass density [kg/m3]
Settings	303.15 K	308.15 K	313.15 K	318.15 K	323.15 K
x2 = 0	915.8	912.2	908.5	904.9	901.2
x2 = 0.0531	939.5	935.9	932.2	928.5	924.9
x2 = 0.1034	962	958.3	954.6	951	947.3
x2 = 0.1513	983.5	979.7	976	972.3	–
x2 = 0.2034	1006.8	1003	999.3	995.6	991.8
x2 = 0.3009	1050.3	–	1042.8	1039	1035.2
x2 = 0.405	–	1093.1	1089.2	1085.4	1081.6
x2 = 0.5042	–	1137.4	1133.5	1129.6	1125.8
x2 = 0.5996	1183.9	–	–	1172.1	–
x2 = 0.6991	1228.4	1224.4	1220.4	1216.5	1212.5
x2 = 0.8029	1274.8	1270.8	1266.7	–	1258.7
x2 = 0.8451	–	1289.6	–	1281.5	1277.4
x2 = 0.8927	1315	1310.9	1306.8	–	1298.7
x2 = 0.9513	1341.7	1337.6	1333.4	1329.3	1325.2
